Reference: a collection of fitness landscapes (doi:10.1126/science.1257360)
Some of the results follow.

B1: PhoQ; a variant is named by its letters at X, in order, P23837 (parent)
chain: MKKLLRLFFPLSLRVRFLLATAAVVLVLSLAYGMVALIGYSVSFDKTTFRLLRGESNLFYTLAKWENNKLHVELPENIDKQSPTMTLIYDENGQLLWAQRDVPWLMKMIQPDWLKSNGFHEIEADVNDTSLLLSGDHSIQQQLQEVREDDDDAEMTHSVAVNVYPATSRMPKLTIVVVDTIPVELKSSYMVWSWFIYVLSANLLLVIPLLWVAAWWSLRPIEALAKEVRELEEHNRELLNPATTRELTSLVRNLNRLLKSERERYDKYRTTLTDLTHSLKTPLXXLQXXLRSLRSEKMSVSDAEPVMLEQISRISQQIGYYLHRASMRGGTLLSRELHPVAPLLDNLTSALNKVYQRKGVNISLDISPEISFVGEQNDFVEVMGNVLDNACKYCLEFVEISARQTDEHLYIVVEDDGPGIPLSKREVIFDRGQRVDTLRPGQGVGLAVAREITEQYEGKIVAGESMLGGARMEVIFGRQHSAPKDE

Variants of: B1
Assay: enrichment ratio after two sorts for PhoP signalling (ratio (wild type AVST 3.29)); higher = more functional
Details: with PhoP (E. coli)

| Variant | enrichment ratio |
| --- | --- |
| NQMT | ≤ 0.25 |
| QRTM | ≤ 0.25 |
| EQQR | ≤ 0.25 |
| QRLG | ≤ 0.25 |
| SAWL | 2.19 |
| IRKC | ≤ 0.25 |
| SIRM | ≤ 0.25 |
| KMSM | ≤ 0.25 |
| PVGF | ≤ 0.25 |
| DAFL | ≤ 0.25 |
| IWFT | ≤ 0.25 |
| FYGT | ≤ 0.25 |
| FYNA | ≤ 0.25 |
| MQPK | ≤ 0.25 |
| NEYD | ≤ 0.25 |
| RESW | ≤ 0.25 |
| AHQP | ≤ 0.25 |
| EVSC | ≤ 0.25 |
| NFVS | ≤ 0.25 |
| YAFC | ≤ 0.25 |
| PMFD | ≤ 0.25 |
| MTVD | ≤ 0.25 |
| PYDS | ≤ 0.25 |
| HTDM | ≤ 0.25 |

| Variant | enrichment ratio |
| --- | --- |
| AFKF | ≤ 0.25 |
| MTIQ | ≤ 0.25 |
| EYYQ | ≤ 0.25 |
| TQAP | ≤ 0.25 |
| LRAW | ≤ 0.25 |
| MNYC | ≤ 0.25 |
| WGYT | ≤ 0.25 |
| LWAM | ≤ 0.25 |
| HDHH | ≤ 0.25 |
| AAEF | ≤ 0.25 |
| LDIC | ≤ 0.25 |
| SNVQ | 7.33 |
| GECW | ≤ 0.25 |
| TNMC | 35.5 |
| YCFV | ≤ 0.25 |
| MDSK | ≤ 0.25 |
| ANYK | ≤ 0.25 |
| MQKM | ≤ 0.25 |
| NGHF | ≤ 0.25 |
| TFDD | ≤ 0.25 |
| FNHI | ≤ 0.25 |
| PDRA | ≤ 0.25 |
| SCRR | ≤ 0.25 |
| VKQF | ≤ 0.25 |

| Variant | enrichment ratio |
| --- | --- |
| VMNP | ≤ 0.25 |
| WVHG | ≤ 0.25 |
| QNRC | ≤ 0.25 |
| NMEY | ≤ 0.25 |
| TEYR | ≤ 0.25 |
| MLWR | ≤ 0.25 |
| SVRC | ≤ 0.25 |
| QCII | ≤ 0.25 |
| IQGF | ≤ 0.25 |
| KEYY | ≤ 0.25 |
| YFAA | ≤ 0.25 |
| FMND | ≤ 0.25 |
| EVMW | ≤ 0.25 |
| VNGR | ≤ 0.25 |
| YGDK | ≤ 0.25 |
| DRHY | ≤ 0.25 |
| GTKV | ≤ 0.25 |
| THLM | 12.3 |
| ATFR | ≤ 0.25 |
| YSPH | ≤ 0.25 |
| MLRT | ≤ 0.25 |
| QLVK | ≤ 0.25 |
| MTKC | ≤ 0.25 |
| LTPH | ≤ 0.25 |

| Variant | enrichment ratio |
| --- | --- |
| VFQA | ≤ 0.25 |
| VPAP | ≤ 0.25 |
| EVGV | ≤ 0.25 |
| SRIG | ≤ 0.25 |
| EGDK | ≤ 0.25 |
| YQAH | ≤ 0.25 |
| RWGY | ≤ 0.25 |
| NLVK | ≤ 0.25 |
| FIWC | ≤ 0.25 |
| NHWQ | ≤ 0.25 |
| QAPY | ≤ 0.25 |
| YGVV | ≤ 0.25 |
| QASR | ≤ 0.25 |
| LPFR | ≤ 0.25 |
| FQMG | 1.33 |
| SVTA | 5.44 |
| DHHI | ≤ 0.25 |
| HICS | ≤ 0.25 |
| PTCW | ≤ 0.25 |
| RAMA | ≤ 0.25 |
| APRM | ≤ 0.25 |
| SPQW | ≤ 0.25 |
| IPVE | ≤ 0.25 |
| FVMC | ≤ 0.25 |

| Variant | enrichment ratio |
| --- | --- |
| GVYD | ≤ 0.25 |
| NNFG | ≤ 0.25 |
| QTCY | ≤ 0.25 |
| WWGI | ≤ 0.25 |
| KRRR | ≤ 0.25 |
| MPLV | ≤ 0.25 |
| NMNG | ≤ 0.25 |
| FTMK | ≤ 0.25 |
| PWMC | ≤ 0.25 |
| TNMF | 0.451 |
| YKQN | ≤ 0.25 |
| NKTN | ≤ 0.25 |
| DHLA | ≤ 0.25 |
| DEYS | ≤ 0.25 |
| ISQH | ≤ 0.25 |
| LKYE | ≤ 0.25 |
| HTNH | ≤ 0.25 |
| NVRD | 1.51 |
| SEGK | ≤ 0.25 |
| RHHP | ≤ 0.25 |
| RNVY | ≤ 0.25 |
| RCYQ | ≤ 0.25 |
| VSMC | 1.5 |
| ISKS | ≤ 0.25 |

| Variant | enrichment ratio |
| --- | --- |
| GVFI | ≤ 0.25 |
| SISA | 11.9 |
| SYWC | ≤ 0.25 |
| IDFP | ≤ 0.25 |
| SSWP | ≤ 0.25 |
| EAIY | ≤ 0.25 |
| TVSF | 9.17 |
| RYFY | ≤ 0.25 |
| FYWL | ≤ 0.25 |
| SPPK | ≤ 0.25 |
| HHWK | ≤ 0.25 |
| EKRT | ≤ 0.25 |
| PNFW | ≤ 0.25 |
| LKDS | ≤ 0.25 |
| PLNA | ≤ 0.25 |
| KGRI | ≤ 0.25 |
| EHCC | ≤ 0.25 |
| TYMH | ≤ 0.25 |
| INRH | ≤ 0.25 |
| YVEP | ≤ 0.25 |
| QCVP | ≤ 0.25 |
| KMLW | ≤ 0.25 |
| IISA | ≤ 0.25 |
| GIPK | ≤ 0.25 |

| Variant | enrichment ratio |
| --- | --- |
| GPRS | ≤ 0.25 |
| TNKV | ≤ 0.25 |
| MTHG | ≤ 0.25 |
| PRIC | ≤ 0.25 |
| QFFW | ≤ 0.25 |
| PNHM | ≤ 0.25 |
| DYHS | ≤ 0.25 |
| AQMS | 2.72 |
| VIEK | ≤ 0.25 |
| QGIL | 0.742 |
| DAAF | ≤ 0.25 |
| FGRK | ≤ 0.25 |
| NDRD | ≤ 0.25 |
| PMDS | ≤ 0.25 |
| ALPG | ≤ 0.25 |
| LYVN | ≤ 0.25 |
| SGNY | ≤ 0.25 |
| YPSK | ≤ 0.25 |
| SCCA | 8.33 |
| TGMS | 12.8 |
| QFCA | ≤ 0.25 |
| INSR | ≤ 0.25 |
| NNIC | ≤ 0.25 |
| FIRS | ≤ 0.25 |

| Variant | enrichment ratio |
| --- | --- |
| KRAA | ≤ 0.25 |
| FAPK | ≤ 0.25 |
| TIKF | ≤ 0.25 |
| MQDL | ≤ 0.25 |
| MWSN | ≤ 0.25 |
| VSGN | ≤ 0.25 |
| AKNG | ≤ 0.25 |
| HIWC | ≤ 0.25 |
| MQPD | ≤ 0.25 |
| PGTY | ≤ 0.25 |
| ADYW | ≤ 0.25 |
| MQCI | 1.41 |
| NMNL | ≤ 0.25 |
| HDLW | ≤ 0.25 |
| QTNI | ≤ 0.25 |
| LCYS | ≤ 0.25 |
| MKWR | ≤ 0.25 |
| HAYR | ≤ 0.25 |
| IPNA | ≤ 0.25 |
| TVMA | 11.1 |
| FCAF | ≤ 0.25 |
| NFHY | ≤ 0.25 |
| NTRW | ≤ 0.25 |
| VVNK | ≤ 0.25 |

| Variant | enrichment ratio |
| --- | --- |
| GWPR | ≤ 0.25 |
| MMLK | ≤ 0.25 |
| NNRI | ≤ 0.25 |
| GCAV | ≤ 0.25 |
| QTIC | ≤ 0.25 |
| AMGC | ≤ 0.25 |
| FRLP | ≤ 0.25 |
| NKSV | ≤ 0.25 |
| QDFW | ≤ 0.25 |
| KGFA | ≤ 0.25 |
| HSKD | ≤ 0.25 |
| HRFD | ≤ 0.25 |
| RYVV | ≤ 0.25 |
| GKEG | ≤ 0.25 |
| RGAR | ≤ 0.25 |
| IGQM | ≤ 0.25 |
| VMTT | ≤ 0.25 |
| DPHQ | ≤ 0.25 |
| QSPD | ≤ 0.25 |
| TIVV | ≤ 0.25 |
| MLAH | ≤ 0.25 |
| FAIN | 0.294 |
| LSHD | ≤ 0.25 |
| TEST | 23.4 |

| Variant | enrichment ratio |
| --- | --- |
| NFVV | ≤ 0.25 |
| YCSI | 0.257 |
| YWKH | ≤ 0.25 |
| TAIG | ≤ 0.25 |
| NDYL | ≤ 0.25 |
| DPRK | ≤ 0.25 |
| SWAG | ≤ 0.25 |
| PITH | ≤ 0.25 |
| YPAS | ≤ 0.25 |
| WAWA | ≤ 0.25 |
| QTLR | ≤ 0.25 |
| CYVS | ≤ 0.25 |
| PSMW | ≤ 0.25 |
| SWFS | ≤ 0.25 |
| CINQ | ≤ 0.25 |
| HCMW | ≤ 0.25 |
| NPHW | ≤ 0.25 |
| QGMM | 31.6 |
| WVGL | ≤ 0.25 |
| VFLG | ≤ 0.25 |
| WGHH | ≤ 0.25 |
| KYEM | ≤ 0.25 |
| VNNH | ≤ 0.25 |
| QIPW | ≤ 0.25 |

| Variant | enrichment ratio |
| --- | --- |
| DLSD | ≤ 0.25 |
| WIKV | ≤ 0.25 |
| RCGD | ≤ 0.25 |
| VKWP | ≤ 0.25 |
| KRFM | ≤ 0.25 |
| ILVF | ≤ 0.25 |
| HKGY | ≤ 0.25 |
| SMKP | ≤ 0.25 |
| DSGG | ≤ 0.25 |
| LEFL | 1.22 |
| RKYE | ≤ 0.25 |
| HHMT | ≤ 0.25 |
| VATV | ≤ 0.25 |
| FAFM | ≤ 0.25 |
| VLVI | ≤ 0.25 |
| NNWK | ≤ 0.25 |
| WRWC | ≤ 0.25 |
| STIY | 1.72 |
| SNHT | ≤ 0.25 |
| WMNW | ≤ 0.25 |
| KDAD | ≤ 0.25 |
| DKWY | ≤ 0.25 |
| ARHR | ≤ 0.25 |
| MRTQ | ≤ 0.25 |

| Variant | enrichment ratio |
| --- | --- |
| VACA | ≤ 0.25 |
| GDDI | ≤ 0.25 |
| SDPA | ≤ 0.25 |
| ESYR | ≤ 0.25 |
| REIP | ≤ 0.25 |
| GCTW | ≤ 0.25 |
| FLCI | 0.953 |
| VWWH | ≤ 0.25 |
| GWYR | ≤ 0.25 |
| GPYM | ≤ 0.25 |
| AMRG | ≤ 0.25 |
| WPMF | ≤ 0.25 |
| WRRQ | ≤ 0.25 |
| LQDW | ≤ 0.25 |
| PYGV | ≤ 0.25 |
| DHQW | ≤ 0.25 |
| CRLI | ≤ 0.25 |
| DQWA | ≤ 0.25 |
| SWWA | ≤ 0.25 |
| LEYY | ≤ 0.25 |
| PFFV | ≤ 0.25 |
| QAFT | ≤ 0.25 |
| QQWI | ≤ 0.25 |
| QLFK | ≤ 0.25 |

| Variant | enrichment ratio |
| --- | --- |
| GVNR | ≤ 0.25 |
| LCES | ≤ 0.25 |
| FEMN | 5.19 |
| TVHT | ≤ 0.25 |
| ENDY | ≤ 0.25 |
| YIKC | ≤ 0.25 |
| VLFC | ≤ 0.25 |
| PLEK | ≤ 0.25 |
| LKEG | ≤ 0.25 |
| YVIF | ≤ 0.25 |
| QKMY | ≤ 0.25 |
| AVIR | 1.06 |
| HPYV | ≤ 0.25 |
| RVQM | ≤ 0.25 |
| DHSH | ≤ 0.25 |
| LLRW | ≤ 0.25 |
| GYGG | ≤ 0.25 |
| QTQM | ≤ 0.25 |
